Results from the supplement of paper PMC12217912.
The list shows a part of the results. Sequences were assembled here from the parent chain. Values near 0.05 are background.

B1: TEV protease; numbered along this chain (parent)
chain: MGESLFKGPRDYNPISSSICHLTNESDGHTTSLYGIGFGPFIITNKHLFRRNNGTLVVQSLHGVFKVKDTTTLQQHLVDGRDMIIIRMPKDFPPFPQKLKFREPQREERICLVTTNFQTKSMSSMVSDTSCTFPSGDGIFWKHWIQTKDGQCGSPLVSTRDGFIVGIHSASNFTNTNNYFTSVPKNFMELLTNQEAQQWVSGWRLNADSVLWGGHKVFMVKPEEPFQPVKEATQL

Variants of: B1
Experiment: raw area under fraction-flipped curve 0-4 h after induction (AUC4h, not background-subtracted), DNA-recorder readout of cleavage of the substrate (dimensionless); higher = more cleavage of the substrate by the protease variant
Details: temperature: 34 °C; time window: 0-4 h after rhamnose induction
Method: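 In vivo DNA recorder in E. coli TOP10(DE3) ΔrhaA at 34 °C. Each TEVp single-site mutant (parent TEVp 0) is paired with a single-site variant of the 7-mer TEVs (canonical ENLYFQ|S). The substrate sits between flexible linkers in a Bxb1-sfGFP-TEVs-SsrA fusion, so cleavage stabilises Bxb1 and speeds flipping of a recombination array, read by NGS. The value is the raw area under the fraction-flipped curve over 0-4 h after rhamnose induction (AUC4h), with ≥20 reads per time point. It is not background-subtracted; inactive controls average about 0.047.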
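Also: Bxb1 expression induced with 0.2% (w/v) L-rhamnose at OD600 near 0.5, cultures sampled hourly, flipped fraction per protease–substrate barcode pair counted by paired-end Illumina sequencing.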

| Variant | area with substrate CNLYFQS | area with substrate DNLYFQS | area with substrate FNLYFQS | area with substrate HNLYFQS | area with substrate INLYFQS | area with substrate KNLYFQS | area with substrate LNLYFQS | area with substrate MNLYFQS | area with substrate NNLYFQS | area with substrate PNLYFQS | area with substrate SNLYFQS | area with substrate TNLYFQS | area with substrate YNLYFQS | area with substrate GNLYFQS | area with substrate QNLYFQS | area with substrate RNLYFQS | area with substrate VNLYFQS | area with substrate WNLYFQS |
| --- | --- | --- | --- | --- | --- | --- | --- | --- | --- | --- | --- | --- | --- | --- | --- | --- | --- | --- |
| M122N | 0.0605 | 0.106 | 0.0811 | 0.0649 | 0.112 | 0.06 | 0.0571 | 0.0612 | 0.0679 | 0.0755 | 0.0605 | 0.0776 | 0.0548 |  |  |  |  |  |
| M122A | 0.0707 | 0.0825 |  | 0.0624 | 0.0636 | 0.0706 | 0.0687 |  | 0.0493 | 0.0971 |  | 0.0578 | 0.0573 | 0.0765 | 0.099 | 0.0691 | 0.0659 | 0.0798 |
| R106T | 0.0642 | 0.0702 | 0.0551 | 0.0771 | 0.0732 | 0.0587 |  | 0.0418 | 0.0565 | 0.0721 | 0.0635 | 0.0632 | 0.0511 | 0.0755 | 0.0663 |  | 0.062 | 0.0416 |
| E107H | 0.0686 | 0.0755 |  |  |  |  |  |  | 0.0611 | 0.0606 |  | 0.04 |  |  |  |  | 0.0605 | 0.0598 |
| E107G | 0.0454 | 0.0729 |  | 0.0628 |  |  | 0.0652 | 0.0725 |  | 0.0682 |  | 0.0637 |  |  |  |  | 0.0711 | 0.0589 |
| Q105Y | 0.0705 | 0.0778 |  | 0.058 |  | 0.0663 | 0.0601 | 0.0601 | 0.0674 | 0.0653 | 0.0765 | 0.0663 | 0.0313 | 0.0685 |  |  |  | 0.0625 |
| Q105E | 0.0668 | 0.103 |  |  |  |  |  | 0.0629 | 0.0764 |  | 0.0806 | 0.0799 | 0.0534 | 0.0766 |  |  |  | 0.0587 |
| T115E | 0.0502 | 0.0715 | 0.0626 | 0.0718 | 0.0393 | 0.0676 | 0.0697 | 0.0692 |  | 0.061 | 0.0638 |  | 0.0719 | 0.0579 |  |  | 0.0612 | 0.068 |
| T115F | 0.062 | 0.0811 | 0.0669 | 0.0705 |  |  | 0.0587 | 0.0741 | 0.0778 | 0.0717 | 0.0595 | 0.0608 | 0.067 |  |  |  |  | 0.0508 |
| P89H | 0.0687 | 0.0592 | 0.124 | 0.0765 | 0.0608 |  | 0.0754 |  |  | 0.0511 |  | 0.0746 | 0.0583 | 0.0588 | 0.0703 |  | 0.0513 | 0.0514 |
| K100F | 0.0639 | 0.0702 |  | 0.0597 |  | 0.071 |  | 0.0516 | 0.0551 |  |  | 0.0503 |  |  |  |  | 0.0682 | 0.0751 |
| K100H | 0.0664 | 0.0936 | 0.075 | 0.0432 |  | 0.0677 |  | 0.0713 | 0.067 | 0.075 | 0.0727 |  | 0.0553 |  |  | 0.0718 | 0.0794 | 0.0621 |
| K100I | 0.065 | 0.0737 |  |  | 0.0614 |  |  |  |  | 0.0743 | 0.0811 | 0.0722 | 0.0581 | 0.0732 |  |  |  | 0.0739 |
| D82G | 0.0269 | 0.0623 |  |  |  |  | 0.0473 |  |  |  |  |  | 0.0604 |  |  |  |  |  |
| D82R | 0.052 | 0.0542 |  |  | 0.0376 |  |  |  |  | 0.0781 |  | 0.0617 | 0.0494 |  |  |  |  | 0.0506 |
| L99P | 0.0447 | 0.069 | 0.0617 | 0.0737 |  | 0.0614 | 0.0559 | 0.0678 | 0.086 | 0.0671 | 0.0728 | 0.0742 |  |  |  | 0.0624 |  | 0.046 |
| D79H | 0.0669 | 0.0715 |  | 0.062 | 0.0604 | 0.0814 |  |  | 0.0554 |  | 0.0596 | 0.0918 | 0.075 |  |  |  |  | 0.0514 |
| I86D | 0.0815 | 0.0592 |  |  | 0.0282 |  | 0.0323 | 0.0311 | 0.047 |  |  |  |  |  |  |  | 0.0415 | 0.0448 |
| I86W | 0.0543 | 0.0685 | 0.0602 | 0.051 | 0.0686 | 0.0672 | 0.0528 | 0.0556 | 0.0538 | 0.0703 | 0.0619 | 0.0609 | 0.047 | 0.0599 | 0.0651 | 0.0529 |  | 0.0493 |
| R109E | 0.0477 | 0.0631 | 0.0666 | 0.0543 |  | 0.0621 | 0.0761 | 0.071 | 0.0598 | 0.0657 | 0.0643 |  |  | 0.0721 |  | 0.0591 | 0.0768 | 0.0734 |
| E108D | 0.0628 | 0.0802 | 0.0325 | 0.0595 |  |  | 0.0633 | 0.073 | 0.0729 | 0.0735 | 0.0649 | 0.0631 | 0.0554 | 0.0926 |  |  | 0.0712 | 0.0483 |
| E108M | 0.0599 | 0.0664 | 0.0517 | 0.0635 |  | 0.0405 | 0.0567 |  | 0.0702 | 0.0573 |  | 0.0768 | 0.0601 | 0.0593 |  |  |  | 0.0514 |
| E103H | 0.0658 | 0.056 | 0.0517 | 0.0608 |  |  | 0.0736 | 0.0703 | 0.0669 | 0.061 | 0.061 | 0.0754 |  |  |  |  | 0.049 |  |
| E103V | 0.0562 | 0.0856 |  | 0.0724 | 0.062 |  | 0.069 | 0.0604 | 0.066 | 0.0676 |  |  | 0.0566 |  | 0.0742 | 0.0682 | 0.0513 | 0.0593 |
| D91F | 0.054 | 0.0502 | 0.061 | 0.0555 |  | 0.0568 | 0.0658 | 0.0663 |  | 0.0726 | 0.0655 | 0.0665 |  | 0.0587 | 0.0618 |  |  | 0.0484 |
| D91Q | 0.0618 | 0.0673 | 0.0668 |  |  | 0.0576 |  |  |  |  | 0.0632 | 0.0592 | 0.0651 |  |  |  |  |  |
| D91W | 0.0721 | 0.106 | 0.0434 | 0.041 | 0.054 | 0.0858 | 0.0634 |  | 0.0539 | 0.0708 | 0.0645 |  |  | 0.0676 |  | 0.0812 | 0.0578 | 0.0548 |
| S123G | 0.066 | 0.0829 |  | 0.0614 | 0.0697 | 0.0588 | 0.0695 | 0.006 | 0.0729 | 0.0547 | 0.0678 | 0.072 | 0.0485 | 0.0814 | 0.0659 | 0.0654 | 0.0672 | 0.0629 |
| S123E | 0.0665 | 0.0845 |  | 0.0705 | 0.0688 | 0.067 |  | 0.0615 | 0.0689 | 0.0611 | 0.0587 | 0.061 |  | 0.0584 | 0.0361 |  |  | 0.0677 |
